# Assay results taken from paper PMC9911399, “Two distinct binding modes provide the RNA-binding protein RbFox with extraordinary sequence specificity”.
# Residue numbers refer to the chain shown, from its start. The list shows a part of the results.
# T1: RBFOX1 RRM RbFoxmut (Fox-RRM*) (Homo sapiens, UniProt Q9NWB1 109-208, R118D;E147R;N151S;E152T)
# T1 sequence: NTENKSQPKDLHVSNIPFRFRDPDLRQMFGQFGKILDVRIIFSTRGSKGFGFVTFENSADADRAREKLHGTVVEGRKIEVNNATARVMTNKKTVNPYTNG
# B1: AUUUACG (DNA:RNA)
# RNA: GGGAGACCGGAAUUCAGAUUGUCCAUUUACGUUAAAUCCCGUCGUAGCCACCA
# DNA 1: CAATCTGAATTCCGGTCTCCC
# DNA 2: TGGTGGCTACGACGGGATT
# B2: UCAAUUU (DNA:RNA)
# RNA: GGGAGACCGGAAUUCAGAUUGUCCUCAAUUUUUAAAUCCCGUCGUAGCCACCA
# DNA 1: CAATCTGAATTCCGGTCTCCC
# DNA 2: TGGTGGCTACGACGGGATT
# B3: UAGGUGC (DNA:RNA)
# RNA: B2 RNA with C26A, A27G, A28G, U30G, U31C
# DNA 1: CAATCTGAATTCCGGTCTCCC
# DNA 2: TGGTGGCTACGACGGGATT
# B4: GGUGGGC (DNA:RNA)
# RNA: B1 RNA with A25G, U26G, U28G, A29G, C30G, G31C
# DNA 1: CAATCTGAATTCCGGTCTCCC
# DNA 2: TGGTGGCTACGACGGGATT
# B5: ACGGACC (DNA:RNA)
# RNA: B1 RNA with U26C, U27G, U28G, G31C
# DNA 1: CAATCTGAATTCCGGTCTCCC
# DNA 2: TGGTGGCTACGACGGGATT
# B6: AUUAUCA (DNA:RNA)
# RNA: B1 RNA with U28A, A29U, G31A
# DNA 1: CAATCTGAATTCCGGTCTCCC
# DNA 2: TGGTGGCTACGACGGGATT
# B7: CCUAUUA (DNA:RNA)
# RNA: B2 RNA with U25C, A27U, U31A
# DNA 1: CAATCTGAATTCCGGTCTCCC
# DNA 2: TGGTGGCTACGACGGGATT
# B8: UUUAGAA (DNA:RNA)
# RNA: B1 RNA with A25U, U28A, A29G, C30A, G31A
# DNA 1: CAATCTGAATTCCGGTCTCCC
# DNA 2: TGGTGGCTACGACGGGATT
# B9: CAAGCGA (DNA:RNA)
# RNA: B2 RNA with U25C, C26A, A28G, U29C, U30G, U31A
# DNA 1: CAATCTGAATTCCGGTCTCCC
# DNA 2: TGGTGGCTACGACGGGATT
# B10: UUCUUUU (DNA:RNA)
# RNA: B2 RNA with C26U, A27C, A28U
# DNA 1: CAATCTGAATTCCGGTCTCCC
# DNA 2: TGGTGGCTACGACGGGATT
# B11: CGACUUU (DNA:RNA)
# RNA: B2 RNA with U25C, C26G, A28C
# DNA 1: CAATCTGAATTCCGGTCTCCC
# DNA 2: TGGTGGCTACGACGGGATT
# B12: GCCUAAU (DNA:RNA)
# RNA: B1 RNA with A25G, U26C, U27C, C30A, G31U
# DNA 1: CAATCTGAATTCCGGTCTCCC
# DNA 2: TGGTGGCTACGACGGGATT
# B13: CUCGUAU (DNA:RNA)
# RNA: B2 RNA with U25C, C26U, A27C, A28G, U30A
# DNA 1: CAATCTGAATTCCGGTCTCCC
# DNA 2: TGGTGGCTACGACGGGATT
# B14: AUCCUUU (DNA:RNA)
# RNA: B2 RNA with U25A, C26U, A27C, A28C
# DNA 1: CAATCTGAATTCCGGTCTCCC
# DNA 2: TGGTGGCTACGACGGGATT
# B15: GGAGUAU (DNA:RNA)
# RNA: B2 RNA with U25G, C26G, A28G, U30A
# DNA 1: CAATCTGAATTCCGGTCTCCC
# DNA 2: TGGTGGCTACGACGGGATT
# B16: CGGCUGG (DNA:RNA)
# RNA: B1 RNA with A25C, U26G, U27G, U28C, A29U, C30G
# DNA 1: CAATCTGAATTCCGGTCTCCC
# DNA 2: TGGTGGCTACGACGGGATT
# B17: UUUGAUU (DNA:RNA)
# RNA: B1 RNA with A25U, U28G, C30U, G31U
# DNA 1: CAATCTGAATTCCGGTCTCCC
# DNA 2: TGGTGGCTACGACGGGATT
# B18: CUUGUGA (DNA:RNA)
# RNA: B1 RNA with A25C, U28G, A29U, C30G, G31A
# DNA 1: CAATCTGAATTCCGGTCTCCC
# DNA 2: TGGTGGCTACGACGGGATT
# B19: CACGGUU (DNA:RNA)
# RNA: B2 RNA with U25C, C26A, A27C, A28G, U29G
# DNA 1: CAATCTGAATTCCGGTCTCCC
# DNA 2: TGGTGGCTACGACGGGATT
# B20: CGUUGGU (DNA:RNA)
# RNA: B1 RNA with A25C, U26G, A29G, C30G, G31U
# DNA 1: CAATCTGAATTCCGGTCTCCC
# DNA 2: TGGTGGCTACGACGGGATT
# B21: UGAUUAG (DNA:RNA)
# RNA: B2 RNA with C26G, A28U, U30A, U31G
# DNA 1: CAATCTGAATTCCGGTCTCCC
# DNA 2: TGGTGGCTACGACGGGATT
# B22: GCCACCA (DNA:RNA)
# RNA: B2 RNA with U25G, A27C, U29C, U30C, U31A
# DNA 1: CAATCTGAATTCCGGTCTCCC
# DNA 2: TGGTGGCTACGACGGGATT
# B23: UCCCCCC (DNA:RNA)
# RNA: B2 RNA with A27C, A28C, U29C, U30C, U31C
# DNA 1: CAATCTGAATTCCGGTCTCCC
# DNA 2: TGGTGGCTACGACGGGATT
# B24: CCUCACU (DNA:RNA)
# RNA: B1 RNA with A25C, U26C, U28C, G31U
# DNA 1: CAATCTGAATTCCGGTCTCCC
# DNA 2: TGGTGGCTACGACGGGATT
# B25: GGGACGU (DNA:RNA)
# RNA: B2 RNA with U25G, C26G, A27G, U29C, U30G
# DNA 1: CAATCTGAATTCCGGTCTCCC
# DNA 2: TGGTGGCTACGACGGGATT
# B26: UACUAGU (DNA:RNA)
# RNA: B1 RNA with A25U, U26A, U27C, C30G, G31U
# DNA 1: CAATCTGAATTCCGGTCTCCC
# DNA 2: TGGTGGCTACGACGGGATT
# B27: AAACCAG (DNA:RNA)
# RNA: B1 RNA with U26A, U27A, U28C, A29C, C30A
# DNA 1: CAATCTGAATTCCGGTCTCCC
# DNA 2: TGGTGGCTACGACGGGATT
# B28: AGAUUAG (DNA:RNA)
# RNA: B1 RNA with U26G, U27A, A29U, C30A
# DNA 1: CAATCTGAATTCCGGTCTCCC
# DNA 2: TGGTGGCTACGACGGGATT
# B29: UCAGCCC (DNA:RNA)
# RNA: B2 RNA with A28G, U29C, U30C, U31C
# DNA 1: CAATCTGAATTCCGGTCTCCC
# DNA 2: TGGTGGCTACGACGGGATT
# B30: GGGUAUA (DNA:RNA)
# RNA: B1 RNA with A25G, U26G, U27G, C30U, G31A
# DNA 1: CAATCTGAATTCCGGTCTCCC
# DNA 2: TGGTGGCTACGACGGGATT
# B31: CGGGUGC (DNA:RNA)
# RNA: B2 RNA with U25C, C26G, A27G, A28G, U30G, U31C
# DNA 1: CAATCTGAATTCCGGTCTCCC
# DNA 2: TGGTGGCTACGACGGGATT
# Target: T1, RBFOX1 RRM RbFoxmut (Fox-RRM*)
# Test: EMSA; HiTS-Eq, 1 nM pool, 10 min; buffer printed only for the single-RNA assays: 10 mM Tris pH 7.5, 150 mM NaCl, 3.4 mM EDTA, 0.001% NP-40, 30 C
# Conditions: tags: His6 N-terminal (pET28a); label: 5' 32P
# Outline: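 These values rest on relative association constants, computed from read-count changes of each RNA species versus the control reaction and normalised to the cognate motif. Reads came from free RNA recovered by 8% native PAGE after purified RbFox RRM (wild type or mutant) at increasing concentrations was equilibrated for 10 min in 50 µL with 1 nM of a 5′-radiolabelled pool with 7 randomized nucleotides and DNA-annealed flanks.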
row,Binder,binding signal
1,B1,0.161 KA relative to UGCAUGU
2,B2,0.079 KA relative to UGCAUGU
3,B3,0.104 KA relative to UGCAUGU
4,B4,0.0553 KA relative to UGCAUGU
5,B5,0.0736 KA relative to UGCAUGU
6,B6,0.114 KA relative to UGCAUGU
7,B7,0.0858 KA relative to UGCAUGU
8,B8,0.125 KA relative to UGCAUGU
9,B9,0.0665 KA relative to UGCAUGU
10,B10,0.0804 KA relative to UGCAUGU
11,B11,0.058 KA relative to UGCAUGU
12,B12,0.0862 KA relative to UGCAUGU
13,B13,0.122 KA relative to UGCAUGU
14,B14,0.109 KA relative to UGCAUGU
15,B15,0.114 KA relative to UGCAUGU
16,B16,0.123 KA relative to UGCAUGU

row,Binder,binding signal
1,B17,0.0999 KA relative to UGCAUGU
2,B18,0.108 KA relative to UGCAUGU
3,B19,0.0946 KA relative to UGCAUGU
4,B20,0.168 KA relative to UGCAUGU
5,B21,0.116 KA relative to UGCAUGU
6,B22,0.0652 KA relative to UGCAUGU
7,B23,0.0392 KA relative to UGCAUGU
8,B24,0.0967 KA relative to UGCAUGU
9,B25,0.162 KA relative to UGCAUGU
10,B26,0.0635 KA relative to UGCAUGU
11,B27,0.109 KA relative to UGCAUGU
12,B28,0.138 KA relative to UGCAUGU
13,B29,0.0707 KA relative to UGCAUGU
14,B30,0.139 KA relative to UGCAUGU
15,B31,0.142 KA relative to UGCAUGU
